Test results as given in PMC6387754, “Dual mechanism of TRKB activation by anandamide through CB1 and TRPV1 receptors” (PeerJ, 2019).

Biological target: T1, TRKB (tropomyosin-related kinase B) (rat (endogenous in primary cortical …, UniProt Q63604 32-821))
T1 construct: TRKB (tropomyosin-related kinase B), receptor of BDNF, endogenous in rat primary cortical cells; precipitated with anti-TRKB; source: endogenous, lysate of primary cortical cultures of E18 rat embryos (DIV8)
Assay: co-IP; lysates of DIV8 rat cortical cultures (lysis buffer with 1% NP-40, 137 mM NaCl) incubated overnight at 4 °C with anti-CB1 or anti-TRKB (1 µg antibody / 500 µg total protein), Protein G-sepharose, washed 3 times; blot with anti-TRPV1; no-antibody negative control; TRPV1 precipitated with anti-TRPV1 as total
Settings: partners not purified

Sequence of TRKB (tropomyosin-related kinase B) (Q63604 32-821): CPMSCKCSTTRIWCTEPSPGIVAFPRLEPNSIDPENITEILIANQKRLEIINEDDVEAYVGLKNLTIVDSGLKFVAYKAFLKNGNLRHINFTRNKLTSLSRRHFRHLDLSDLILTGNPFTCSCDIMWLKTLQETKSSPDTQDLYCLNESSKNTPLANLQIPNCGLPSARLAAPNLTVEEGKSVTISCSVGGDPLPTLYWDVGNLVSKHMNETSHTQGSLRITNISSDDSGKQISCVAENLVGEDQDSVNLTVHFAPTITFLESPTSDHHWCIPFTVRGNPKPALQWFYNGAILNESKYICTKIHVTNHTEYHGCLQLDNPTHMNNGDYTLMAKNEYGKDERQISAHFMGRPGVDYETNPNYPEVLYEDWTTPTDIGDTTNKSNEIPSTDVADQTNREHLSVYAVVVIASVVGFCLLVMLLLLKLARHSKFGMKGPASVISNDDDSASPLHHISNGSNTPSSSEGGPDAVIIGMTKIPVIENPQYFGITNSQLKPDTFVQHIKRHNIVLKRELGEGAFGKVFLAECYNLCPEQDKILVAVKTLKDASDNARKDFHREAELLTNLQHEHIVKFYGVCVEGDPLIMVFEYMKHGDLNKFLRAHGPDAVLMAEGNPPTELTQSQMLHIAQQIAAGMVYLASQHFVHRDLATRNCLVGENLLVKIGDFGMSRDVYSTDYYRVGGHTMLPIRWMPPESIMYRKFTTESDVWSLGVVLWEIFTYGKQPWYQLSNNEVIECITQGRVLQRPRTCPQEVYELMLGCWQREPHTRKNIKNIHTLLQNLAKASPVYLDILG

ratio of TRKB-coupled TRPV1 compared to total TRPV1: 13.2%
B1: vanilloid receptor TRPV1 (receptor)
chain: not shown
notes: TRPV1 (vanilloid receptor, VR1), endogenous in rat primary cortical cells; band at 100 kDa on the blot; also called VR1; source: endogenous, lysate of primary cortical cultures of E18 rat embryos (DIV8)
